# Data as given in the supplement of paper PMC8728848.
# The list shows a part of the results.
# B1: Na-CTL-1 (Necator americanus) (protein)
# chain: MQRSFLLLLVVLAGAWAVNTTIPLKLMGGFTPMKYQCVGRVSDIWADVLFLIESSDMITKSGFRQVIAFITATTKKMTIGQDEKQTRVGFITYGEEAKLIYDLDHWRSTEKLSDLVQKIPYVKSSGTNIAAAIALANKVFNSPTHRPNVPKVMVIVANGLKKGSQNPIPVATAFKDFGGIIITIEYTQYDNIQVPILKKIASEGYNIRSNDEDFSVRTLTNMLLQANCFCPDHYVPFRVNNPEFGCFVTAKIPSMWRDAAEMCRAVEEGKLVKVENEEKAAFIMKLVGPKKEAWIGLRYYGNKFQWTDGTKLNADDFNLWPEDIKELNGPHCVSMYQDQKDKKYYWRAGKCLEDMRYVCEVQPCSASNYCSEPVFMYRQKHRALLPAPPPPPN
# Key:
# Experiment in all cases: glycan array binding signal (z-score within array); higher = stronger binding
# Conditions in all cases: glycan notation: IUPAC condensed, linker removed
# [1] = target: Neu5Ac(a2-3)Gal(b1-3)[Fuc(a1-4)]GlcNAc
# Summary of the method: (§1)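 Columns mapping to the same glycan were averaged after glycan names were converted to IUPAC-condensed notation. The data come from 3228 arrays in the Consortium for Functional Glycomics database, limited to those with an available protein sequence. Binding is reported as a within-array Z-score averaged across arrays of one protein sequence and across linkers.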
# [2] = target: Neu5Ac(a2-3)Gal(b1-3)[Fuc(a1-4)]GlcNAc(b1-3)Gal(b1-3)[Fuc(a1-4)]GlcNAc
# Summary of the method: as §1
# [3] = target: Neu5Ac(a2-3)Gal(b1-3)[Fuc(a1-4)]GlcNAc(b1-3)Gal(b1-4)[Fuc(a1-3)]GlcNAc
# Summary of the method: as §1
# [4] = target: Neu5Ac(a2-3)Gal(b1-3)[GlcNAc(b1-6)]GalNAc
# Summary of the method: as §1
# [5] = target: Neu5Ac(a2-3)Gal(b1-3)[Neu5Ac(a2-6)]GalNAc
# Summary of the method: as §1
# [6] = target: Neu5Ac(a2-3)Gal(b1-3)[Neu5Ac(a2-6)]GlcNAc(b1-3)[Fuc(a1-3)[Gal(b1-4)]GlcNAc(b1-6)]Gal(b1-4)Glc
# Summary of the method: as §1
# [7] = target: Neu5Ac(a2-3)Gal(b1-3)]Neu5Ac(a2-3)Gal(b1-4)]GlcNAc
# Summary of the method: as §1
# [8] = target: Neu5Ac(a2-3)Gal(b1-4)Glc
# Summary of the method: as §1
# [9] = target: Neu5Ac(a2-3)Gal(b1-4)GlcNAc
# Summary of the method: as §1
# [10] = target: Neu5Ac(a2-3)Gal(b1-4)GlcNAc(b1-2)Man
# Summary of the method: as §1
# [11] = target: Neu5Ac(a2-3)Gal(b1-4)GlcNAc(b1-2)Man(a1-3)[GlcNAc(b1-4)][Neu5Ac(a2-3)Gal(b1-4)GlcNAc(b1-2)Man(a1-6)]Man(b1-4)GlcNAc(b1-4)GlcNAc
# Summary of the method: as §1
# [12] = target: Neu5Ac(a2-3)Gal(b1-4)GlcNAc(b1-2)Man(a1-3)[Neu5Ac(a2-3)Gal(b1-4)GlcNAc(b1-2)Man(a1-6)]Man(b1-4)GlcNAc(b1-4)GlcNAc
# Summary of the method: as §1
# [13] = target: Neu5Ac(a2-3)Gal(b1-4)GlcNAc(b1-2)Man(a1-3)[Neu5Ac(a2-3)Gal(b1-4)GlcNAc(b1-2)Man(a1-6)]Man(b1-4)GlcNAc(b1-4)[Fuc(a1-6)]GlcNAc
# Summary of the method: as §1
# [14] = target: Neu5Ac(a2-3)Gal(b1-4)GlcNAc(b1-2)Man(a1-3)[Neu5Ac(a2-6)Gal(b1-4)GlcNAc(b1-2)Man(a1-6)]Man(b1-4)GlcNAc(b1-4)GlcNAc
# Summary of the method: as §1
# [15] = target: Neu5Ac(a2-3)Gal(b1-4)GlcNAc(b1-2)[Neu5Ac(a2-3)Gal(b1-4)GlcNAc(b1-4)]Man(a1-3)[GlcNAc(b1-4)][Neu5Ac(a2-3)Gal(b1-4)GlcNAc(b1-2)[Neu5Ac(a2-3)Gal(b1-4)GlcNAc(b1-6)]Man(a1-6)]Man(b1-4)GlcNAc(b1-4)GlcNAc
# Summary of the method: as §1
# [16] = target: Neu5Ac(a2-3)Gal(b1-4)GlcNAc(b1-2)[Neu5Ac(a2-3)Gal(b1-4)GlcNAc(b1-4)]Man(a1-3)[GlcNAc(b1-4)][Neu5Ac(a2-3)Gal(b1-4)GlcNAc(b1-4)Man(a1-6)]Man(b1-4)GlcNAc(b1-4)GlcNAc
# Summary of the method: as §1
# [17] = target: Neu5Ac(a2-3)Gal(b1-4)GlcNAc(b1-2)[Neu5Ac(a2-3)Gal(b1-4)GlcNAc(b1-6)]Man(a1-6)[Neu5Ac(a2-3)Gal(b1-4)GlcNAc(b1-2)Man(a1-3)]Man(b1-4)GlcNAc(b1-4)GlcNAc
# Summary of the method: as §1
# [18] = target: Neu5Ac(a2-3)Gal(b1-4)GlcNAc(b1-2)[Neu5Ac(a2-3)Gal(b1-4)GlcNAc(b1-6)]Man(a1-6)[Neu5Ac(a2-3)Gal(b1-4)GlcNAc(b1-2)Man(a1-3)][GlcNAc(b1-4)]Man(b1-4)GlcNAc(b1-4)GlcNAc
# Summary of the method: as §1
# [19] = target: Neu5Ac(a2-3)Gal(b1-4)GlcNAc(b1-3)Gal
# Summary of the method: as §1
# [20] = target: Neu5Ac(a2-3)Gal(b1-4)GlcNAc(b1-3)Gal(b1-3)GlcNAc
# Summary of the method: as §1
# [21] = target: Neu5Ac(a2-3)Gal(b1-4)GlcNAc(b1-3)Gal(b1-4)GlcNAc
# Summary of the method: as §1
# [22] = target: Neu5Ac(a2-3)Gal(b1-4)GlcNAc(b1-3)Gal(b1-4)GlcNAc(b1-2)Man(a1-3)[Neu5Ac(a2-3)Gal(b1-4)GlcNAc(b1-3)Gal(b1-4)GlcNAc(b1-2)Man(a1-6)]Man(b1-4)GlcNAc(b1-4)GlcNAc
# Summary of the method: as §1
# [23] = target: Neu5Ac(a2-3)Gal(b1-4)GlcNAc(b1-3)Gal(b1-4)GlcNAc(b1-3)Gal(b1-4)GlcNAc
# Summary of the method: as §1
# [24] = target: Neu5Ac(a2-3)Gal(b1-4)GlcNAc(b1-3)Gal(b1-4)GlcNAc(b1-3)Gal(b1-4)GlcNAc(b1-2)Man(a1-3)[Neu5Ac(a2-3)Gal(b1-4)GlcNAc(b1-3)Gal(b1-4)GlcNAc(b1-3)Gal(b1-4)GlcNAc(b1-2)Man(a1-6)]GalNAc
# Summary of the method: as §1
# [25] = target: Neu5Ac(a2-3)Gal(b1-4)GlcNAc(b1-3)Gal(b1-4)GlcNAc(b1-3)GalNAc
# Summary of the method: as §1
# [26] = target: Neu5Ac(a2-3)Gal(b1-4)GlcNAc(b1-3)Gal(b1-4)GlcNAc(b1-3)[Neu5Ac(a2-3)Gal(b1-4)GlcNAc(b1-3)Gal(b1-4)GlcNAc(b1-6)]GalNAc
# Summary of the method: as §1
# [27] = target: Neu5Ac(a2-3)Gal(b1-4)GlcNAc(b1-3)Gal(b1-4)GlcNAc(b1-6)[Gal(b1-3)]GalNAc
# Summary of the method: as §1
# [28] = target: Neu5Ac(a2-3)Gal(b1-4)GlcNAc(b1-3)Gal(b1-4)[Fuc(a1-3)]GlcNAc
# Summary of the method: as §1
# [29] = target: Neu5Ac(a2-3)Gal(b1-4)GlcNAc(b1-3)GalNAc
# Summary of the method: as §1
# [30] = target: Neu5Ac(a2-3)Gal(b1-4)GlcNAc(b1-3)[Neu5Ac(a2-3)Gal(b1-4)GlcNAc(b1-6)]GalNAc
# Summary of the method: as §1
# [31] = target: Neu5Ac(a2-3)Gal(b1-4)GlcNAc(b1-6)GalNAc
# Summary of the method: as §1
# [32] = target: Neu5Ac(a2-3)Gal(b1-4)GlcNAc(b1-6)[Gal(b1-3)]GalNAc
# Summary of the method: as §1
# [33] = target: Neu5Ac(a2-3)Gal(b1-4)GlcNAc(b1-6)[Neu5Ac(a2-3)Gal(b1-3)]GalNAc
# Summary of the method: as §1
# [34] = target: Neu5Ac(a2-3)Gal(b1-4)GlcNAc6S
# Summary of the method: as §1
# [35] = target: Neu5Ac(a2-3)Gal(b1-4)[Fuc(a1-3)]GlcNAc
# Summary of the method: as §1
# [36] = target: Neu5Ac(a2-3)Gal(b1-4)[Fuc(a1-3)]GlcNAc(b1-2)Man
# Summary of the method: as §1
# [37] = target: Neu5Ac(a2-3)Gal(b1-4)[Fuc(a1-3)]GlcNAc(b1-3)Gal
# Summary of the method: as §1
# [38] = target: Neu5Ac(a2-3)Gal(b1-4)[Fuc(a1-3)]GlcNAc(b1-3)Gal(b1-4)GlcNAc
# Summary of the method: as §1
# [39] = target: Neu5Ac(a2-3)Gal(b1-4)[Fuc(a1-3)]GlcNAc(b1-3)Gal(b1-4)[Fuc(a1-3)]GlcNAc(b1-3)Gal(b1-4)[Fuc(a1-3)]GlcNAc
# Summary of the method: as §1
# [40] = target: Neu5Ac(a2-3)Gal(b1-4)[Fuc(a1-3)]GlcNAc(b1-3)GalNAc
# Summary of the method: as §1
# [41] = target: Neu5Ac(a2-3)Gal(b1-4)[Fuc(a1-3)]GlcNAc(b1-6)[Gal(b1-3)]GalNAc
# Summary of the method: as §1
# [42] = target: Neu5Ac(a2-3)Gal(b1-4)[Fuc(a1-3)]GlcNAc(b1-6)[Neu5Ac(a2-3)Gal(b1-3)]GalNAc
# Summary of the method: as §1
# [43] = target: Neu5Ac(a2-3)Gal(b1-4)[Fuc(a1-3)]GlcNAc6S
# Summary of the method: as §1
# [44] = target: Neu5Ac(a2-3)Gal6S(b1-4)GlcNAc
# Summary of the method: as §1
# [45] = target: Neu5Ac(a2-3)Gal6S(b1-4)[Fuc(a1-3)]GlcNAc
# Summary of the method: as §1
binder,measurement,setting,value
B1,glycan array binding signal (z-score),[1],0.115
same,glycan array binding signal (z-score),[2],-0.347
same,glycan array binding signal (z-score),[3],0.365
same,glycan array binding signal (z-score),[4],-0.018
same,glycan array binding signal (z-score),[5],-0.351
same,glycan array binding signal (z-score),[6],-0.348
same,glycan array binding signal (z-score),[7],-0.161
same,glycan array binding signal (z-score),[8],2.35
same,glycan array binding signal (z-score),[9],0.102
same,glycan array binding signal (z-score),[10],0.152
same,glycan array binding signal (z-score),[11],-0.114
same,glycan array binding signal (z-score),[12],0.287
same,glycan array binding signal (z-score),[13],0.341
same,glycan array binding signal (z-score),[14],-0.176
same,glycan array binding signal (z-score),[15],-0.059
same,glycan array binding signal (z-score),[16],0.04
same,glycan array binding signal (z-score),[17],-0.312
same,glycan array binding signal (z-score),[18],-0.202
same,glycan array binding signal (z-score),[19],-0.2
same,glycan array binding signal (z-score),[20],-0.713
same,glycan array binding signal (z-score),[21],-0.293
same,glycan array binding signal (z-score),[22],-0.287
same,glycan array binding signal (z-score),[23],-0.448
same,glycan array binding signal (z-score),[24],1.09
same,glycan array binding signal (z-score),[25],-0.265
same,glycan array binding signal (z-score),[26],0.047
same,glycan array binding signal (z-score),[27],-0.69
same,glycan array binding signal (z-score),[28],-0.604
same,glycan array binding signal (z-score),[29],-0.426
same,glycan array binding signal (z-score),[30],-0.528
same,glycan array binding signal (z-score),[31],-0.166
same,glycan array binding signal (z-score),[32],-0.28
same,glycan array binding signal (z-score),[33],-0.065
same,glycan array binding signal (z-score),[34],-0.462
same,glycan array binding signal (z-score),[35],-0.126
same,glycan array binding signal (z-score),[36],-0.602
same,glycan array binding signal (z-score),[37],-0.062
same,glycan array binding signal (z-score),[38],0.392
same,glycan array binding signal (z-score),[39],-0.054
same,glycan array binding signal (z-score),[40],1.51
same,glycan array binding signal (z-score),[41],-0.051
same,glycan array binding signal (z-score),[42],0.402
same,glycan array binding signal (z-score),[43],-0.221
same,glycan array binding signal (z-score),[44],0.046
same,glycan array binding signal (z-score),[45],-0.585
